The target of experiment [1] is VSV-M-flag (Vesicular stomatitis Indiana virus) (UniProt P03519). The experiment can be described thus: co-IP.
The target of experiment [2] is M protein of measles virus (MeV), pGBKT7 bait (Measles virus) (UniProt Q9W850). The experiment can be described thus: two-hybrid.
Experiment [3] concerns the target M protein of Sendai virus (SeV), pGBKT7 bait (Sendai virus) (UniProt O57299). The experiment can be described thus: two-hybrid.
Another experiment concerns the target T1, RSV M2-1 protein (RSV) (UniProt P04545).
T1 sequence: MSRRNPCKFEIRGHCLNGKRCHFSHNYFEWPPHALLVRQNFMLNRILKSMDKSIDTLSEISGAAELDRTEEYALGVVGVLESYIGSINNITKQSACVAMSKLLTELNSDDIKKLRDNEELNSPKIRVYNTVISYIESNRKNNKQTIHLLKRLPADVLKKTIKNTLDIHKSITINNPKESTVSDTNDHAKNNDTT
Description: two-hybrid.

In experiment [4] the target is M protein of human respiratory syncytial virus (HRSV), pGBKT7 bait (Human respiratory syncytial virus) (UniProt Q4KRW7). The experiment can be described thus: two-hybrid.

These are yes or no findings as the source states them, for the method shown. For part of these data: In cells and extracts the contact can be indirect. Some results given as binding are weak or reduced against the parent protein; the word gives no strength.

Take “endogenous SLD5 of 293 T cells (from UniProt Q9BRT9 1-223)”: the binding entry in experiment [1] was “binds”.

For “human SLD5 fused to the pGADT7 vector (prey) (from UniProt Q9BRT9 1-223)”, the binding result in experiment [2] is recorded as “binds”; in experiment [3], “binds”; in the experiment with RSV M2-1 protein (RSV) it was “binds”; in experiment [4], “no binding”.

With “human SLD5 expressed from PCDH-SLD5 (from UniProt Q9BRT9 1-223)”, in experiment [1], the binding entry is recorded as “binds”.

For the origin of these results see paper PMC8744269.
